# Measurements taken from the supplement of paper PMC5499739.
# Whole data set: some 16,000 sequences, median “Z-score” near -0.37, cut for the highest 2% near 3.1. Some of the results follow.
# Test system: RBM10 RRM1-ZnF-RRM2 (GST-tagged construct)
# Test: RNAcompete 7-mer binding Z-score; higher = stronger binding preference
# Method: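 RNAcompete: 20 pmol GST-tagged RBM10 RNA-binding constructs were incubated with a designed RNA pool of about 241,000 sequences up to 41 nt (1.5 nmol) on glutathione beads for 30 min at 4 °C and washed. Bound RNAs were identified by microarray hybridisation. Each RNA 7-mer is scored by a one-sided Z-score of its enrichment, computed over probes that contain the 7-mer within longer pool sequences.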
row,Sequence,RNAcompete 7-mer binding Z-score
1,CUGUCAG,-0.5
2,UAUCACC,-0.883
3,AUCCCAU,-0.635
4,UCGCCCA,-0.825
5,AUCUGCA,-0.806
6,CCCGGGA,-0.00148
7,GUAAUAC,-0.227
8,UAAAGCG,0.297
9,UUGACUA,-0.61
10,CGGGAAC,1.5
11,ACUCCGG,-0.329
12,UCGACUC,-0.788
13,CGUGCAU,-0.402
14,GGUGGCC,1.21
15,CACGUCG,-0.388
16,GUUCUAU,-0.785
17,UUGGGGC,2.04
18,UGGAUUU,0.217
19,AAUAACC,-0.555
20,CGGAGCA,1.02
21,GUCACCG,-0.457
22,GAGGAUU,1.16
23,AUUCGGA,0.243

row,Sequence,RNAcompete 7-mer binding Z-score
1,CUAGCUC,-0.712
2,GGUGGUC,2.11
3,GCUUUGU,-0.653
4,AGAUUGU,-0.162
5,AGAUUGC,-0.362
6,CUCGCUU,-0.839
7,CUAUGUC,-0.785
8,AAUAUGU,-0.103
9,GAGAUGG,4
10,CACAGAA,-0.191
11,CCUAUGU,-0.825
12,CUUAAGA,-0.635
13,ACAUAAA,-0.493
14,UAUCCCC,-0.653
15,UAUGUGA,0.144
16,GCACUCG,-0.424
17,CUUAUCG,-0.803
18,ACUCGCA,-0.803
19,UCAACAC,-0.479
20,UGAUGCC,-0.624
21,GCAAGUG,0.709
22,CGUGCAC,-0.388
23,GUAAACG,0.691

row,Sequence,RNAcompete 7-mer binding Z-score
1,AGCGUAC,-0.34
2,GUGUCAC,-0.337
3,CGCGUGU,-0.439
4,CUCGAGC,-0.595
5,GCCCAGU,-0.602
6,GAAGCCG,-0.3
7,CUACUGA,-0.672
8,GGUCUGA,-0.296
9,GUGGCUU,-0.0962
10,CAUCACU,-0.803
11,UCCAUCU,-0.905
12,AAUCGAU,-0.235
13,UGGGGUC,2.62
14,CGUGGGU,2.43
15,CUUUGGU,-0.533
16,CAAUGAA,-0.271
17,UUUUCCG,-0.592
18,UGCACGG,0.836
19,UGGAUGC,0.778
20,GCCGUUC,-0.81
21,AGACGCU,-0.999
22,UUUGACA,-0.65
23,GCUUAAU,-0.777

row,Sequence,RNAcompete 7-mer binding Z-score
1,UCGCUAC,-0.803
2,CUGAAGC,-0.471
3,GUCCGCU,-0.686
4,CUCGAGU,-0.588
5,AAAGCAU,-0.246
6,CCAACAG,-0.136
7,CCCGAAU,-0.734
8,ACAGGUU,1.3
9,UUUGGAA,0.599
10,GGCCGAC,0.243
11,CACUUGG,-0.329
12,AACGAGU,0.472
13,CGACGAU,-0.304
14,AAUGGUC,0.822
15,AGACCAC,-0.952
16,AACACCC,-0.577
17,CCGGGAA,0.581
18,GGUAAAC,1.12
19,GUCGCCC,-0.73
20,GAAUGAU,0.202
21,UGCCCUG,-0.632
22,CGGGUAG,2.23
23,CUUUUUA,-0.952
